Consider 29 compounds from the supplement of paper PMC12297408.

For the test, the system named is Plasmodium falciparum NF54/iGP1_RE9H ulg8 stage V gametocytes. In words: gametocyte viability (luciferase signal relative to DMSO control) (% of DMSO control); higher = less gametocytocidal activity, active = 50 or less. The settings on record: exposure time: 72 h. The gist of the method:
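Stage V gametocytes of the NF54/iGP1_RE9Hulg8 line (day 12; ~2.5% gametocytemia, 3% hematocrit), in medium containing 0.5% Albumax II, were dispensed into 96-well plates with compounds spotted in nanolitre volumes from 10 mM DMSO stocks, for final concentrations of 10 µM or 1 µM in a single well each. After 72 h at 37 °C, 90 µl from each well was combined with 10 µl D-luciferin (30 mg/ml), and luminescence was measured on an IVIS Lumina II. Viability was expressed against the mean of the DMSO vehicle wells on the same plate.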

Counter-ions that a name gives are not always drawn. Hit rate of the full screen: of about 1,300 compounds, about 40 (3%) showed activity. This is one part of the list.

On to `COC(=O)N/N=C/c1c[n+]([O-])c2ccccc2[n+]1[O-]` [Carbadox], for which the gametocyte viability was inactive: 82 (concentration: 1 µM) and inactive: 82.9 (concentration: 10 µM).

Take `CN(C(=O)CN(CCO)CC(=O)N(C)C(C)(C)Cc1ccccc1)C(C)(C)Cc1ccccc1` [Oxethazaine]: the gametocyte viability is inactive: 96.7 (concentration: 1 µM) and inactive: 71.6 (concentration: 10 µM).

Take `CC(C(O)c1ccc(O)cc1)N1CCC(Cc2ccccc2)CC1` (stereo not drawn) [Ifenprodil tartrate]: the gametocyte viability (concentration: 1 µM) was inactive: 81.9 and the gametocyte viability (concentration: 10 µM) was inactive: 79.7.

`Cc1c(N)c(=O)n(-c2ccccc2)n1C` [Ampyrone]: the gametocyte viability is inactive: 84.4 (concentration: 1 µM) and inactive: 85.8 (concentration: 10 µM).

For the compound `NC[C@H]1O[C@H](O[C@H]2[C@H](O)[C@@H](O[C@H]3O[C@H](CO)[C@@H](O)[C@H](N)[C@H]3O)[C@H](N)C[C@@H]2N)[C@H](N)C[C@@H]1O` [Tobramycin], the gametocyte viability is, setting by setting: (concentration: 1 µM) inactive: 89.1; (concentration: 10 µM) inactive: 85.

For the compound `C=CCOc1ccccc1OCC(O)CNC(C)C` (stereo not drawn) [Oxprenolol hydrochloride], the gametocyte viability was inactive: 97.4 (concentration: 1 µM) and inactive: 93.4 (concentration: 10 µM).

`CCOC(=O)/C=C(C)/C=C/C=C(C)/C=C/c1c(C)cc(OC)c(C)c1C` [Etretinate]: the gametocyte viability runs as follows: (concentration: 1 µM) inactive: 90.4; (concentration: 10 µM) inactive: 98.9.

In the case of `CCCCC1C(=O)N(c2ccccc2)N(c2ccc(O)cc2)C1=O` (stereo not drawn) [Oxyphenbutazone], the gametocyte viability is inactive: 87 (concentration: 1 µM) and inactive: 78.2 (concentration: 10 µM).

With `N[C@H]1CONC1=O` [(S)-(-)-Cycloserine], the gametocyte viability is inactive: 86 (concentration: 1 µM) and inactive: 82.5 (concentration: 10 µM).

On to `CCN(CC)C(=O)Nc1ccc(OCC(O)CNC(C)(C)C)c(C(C)=O)c1` (stereo not drawn) [Celiprolol HCl], for which the gametocyte viability was inactive: 93.8 (concentration: 1 µM) and inactive: 93.2 (concentration: 10 µM).

With `COc1cc2nc(N3CCN(C(=O)C4COc5ccccc5O4)CC3)nc(N)c2cc1OC` (stereo not drawn) [Doxazosin mesylate], the gametocyte viability runs as follows: (concentration: 1 µM) inactive: 86.5; (concentration: 10 µM) inactive: 63.2.

As for `O=P(O)(O)C(O)(Cn1ccnc1)P(=O)(O)O` [Zoledronic acid hydrate], the gametocyte viability is inactive: 93.3 (concentration: 1 µM) and inactive: 91.4 (concentration: 10 µM).

Turning to `Cc1cc(C(C)(C)C)cc(C)c1CC1=NCCN1` [Xylometazoline hydrochloride], the gametocyte viability (concentration: 1 µM) was inactive: 86.3 and the gametocyte viability (concentration: 10 µM) is inactive: 88.9.

With `CCN(CC)C(=O)C1(c2ccccc2)CC1CN` (stereo not drawn) [Milnacipran hydrochloride], the gametocyte viability by setting is: (concentration: 1 µM) inactive: 83; (concentration: 10 µM) inactive: 84.2.

On to `CCN(CCCCOC(=O)c1ccc(OC)c(OC)c1)C(C)Cc1ccc(OC)cc1` (stereo not drawn) [Mebeverine hydrochloride], for which the gametocyte viability runs as follows: (concentration: 1 µM) inactive: 79.8; (concentration: 10 µM) inactive: 92.7.

Turning to `CCN(CC)CCOCCOC(=O)C1(c2ccccc2)CCCC1` [Carbetapentane citrate], the gametocyte viability was inactive: 79.2 (concentration: 1 µM) and inactive: 81.5 (concentration: 10 µM).

On to `O=C(c1ccccc1)c1ccc2n1CCC2C(=O)O` (stereo not drawn) [Ketorolac tromethamine], for which the gametocyte viability runs as follows: (concentration: 1 µM) inactive: 90.8; (concentration: 10 µM) inactive: 91.1.

Take `CCOC(=O)[C@@](C)(N)Cc1ccc(O)c(O)c1` [Methyldopate hydrochloride]: the gametocyte viability was inactive: 83.2 (concentration: 1 µM) and inactive: 83.7 (concentration: 10 µM).

Consider `COc1c(N2CCNC(C)C2)c(F)cc2c(=O)c(C(=O)O)cn(C3CC3)c12` (stereo not drawn) [Gatifloxacin], for which the gametocyte viability runs as follows: (concentration: 1 µM) inactive: 88; (concentration: 10 µM) inactive: 83.2.

On to `c1ccc(CNc2ncnc3nc[nH]c23)cc1` [Aminopurine, 6-benzyl], for which the gametocyte viability was inactive: 69.7 (concentration: 1 µM) and active: 43.9 (concentration: 10 µM).

For the compound `CN1Cc2c(N)cccc2C(c2ccccc2)C1` (stereo not drawn) [Nomifensine maleate], the gametocyte viability (concentration: 1 µM) was inactive: 87.7 and the gametocyte viability (concentration: 10 µM) is inactive: 82.7.

Regarding `CC(C)(O)c1ccccc1CC[C@@H](SCC1(CC(=O)O)CC1)c1cccc(/C=C/c2ccc3ccc(Cl)cc3n2)c1` [Montelukast], the gametocyte viability (concentration: 1 µM) is inactive: 84.8 and the gametocyte viability (concentration: 10 µM) is inactive: 79.9.

As for `Cc1cc(N)c2ccccc2[n+]1CCCCCCCCCC[n+]1c(C)cc(N)c2ccccc21` [Dequalinium dichloride], the gametocyte viability reads like this: (concentration: 1 µM) inactive: 83.5; (concentration: 10 µM) active: 36.1.

Regarding `Nc1ccn([C@@H]2CS[C@H](CO)O2)c(=O)n1` [Lamivudine], the gametocyte viability was inactive: 84.3 (concentration: 1 µM) and inactive: 87.3 (concentration: 10 µM).

On to `COc1ccccc1OCC(O)COC(N)=O` (stereo not drawn) [Methocarbamol], for which the gametocyte viability (concentration: 1 µM) was inactive: 89 and the gametocyte viability (concentration: 10 µM) is inactive: 84.8.

Turning to `NC1CCN(c2nc3c(cc2F)c(=O)c(C(=O)O)cn3-c2ccc(F)cc2F)C1` (stereo not drawn) [Tosufloxacin hydrochloride], the gametocyte viability by setting is: (concentration: 1 µM) inactive: 78.5; (concentration: 10 µM) inactive: 86.9.

With `COC(=O)Nc1nc2cc([S+]([O-])c3ccccc3)ccc2[nH]1` (stereo not drawn) [Oxfendazol], the gametocyte viability is inactive: 91.9 (concentration: 1 µM) and inactive: 94.8 (concentration: 10 µM).

As to `CO/N=C(\C(=O)N[C@@H]1C(=O)N2C(C(=O)OC(C)OC(C)=O)=C(COC(N)=O)CS[C@H]12)c1ccco1` (stereo partly drawn) [Cefuroxime axetil], the gametocyte viability was inactive: 94.1 (concentration: 1 µM) and inactive: 93.9 (concentration: 10 µM).

Take `C=CCOC(Cn1ccnc1)c1ccc(Cl)cc1Cl` (stereo not drawn) [Enilconazole]: the gametocyte viability is inactive: 82.5 (concentration: 1 µM) and inactive: 76.7 (concentration: 10 µM).
